Some structures have more than one record in an assay (separate samples or runs), and their calls can disagree.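 Treatment: one concentration, 48 hours, 96-well format. Scoring: percent growth, with anything below 10 considered active.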 A number of entries come with more than one value. This list holds those alone. There may be further records. This drug was run again and again over the years, at its own concentration, as given; each value is one run. Counts like (3×) give the number of equal values in this list.
Assays:
A549/ATCC NSCLC = assay: NCI-60 one-dose screen, 48 h (100 = growth as untreated, 0 = no growth, -100 = all killed); conditions: 2.5 mM
786-0 renal = assay: as above; conditions: 2.5 mM

Question: What does the source list for `O=c1[nH]cc(F)c(=O)[nH]1`?
Answer: growth (A549/ATCC NSCLC; runs of 1996): inactive: 26.7, 62.7, 21, 11.8, 14.2, 28.1, 13.3, 17.5, 21.8, 14.9, 10.8, 15.4, 14.7, 15.8 (2×), 16.2, 17.8, 18.5, 10.2 (2×), 12.5, 36, 13.6, 26% and active: 4.36 (2×), 3.78, 4.45, -5.79, 3.51, 0.127, 0.872, 6.16, -43.6, 1.87, 7.6, 7.43, 5.64, 7.23, 7.56 (2×), -1.45, 5.09, 9.73, 9.23, -42.5, 4.71, -3.75, 8.16, 8.04, -5.57, -20.7%; growth (A549/ATCC NSCLC; runs of 1997): active: 9.78, 2.89, -11.5, -19.6, 7.77, 8.73, 8.66, 9.2, 6.04, -1.83, 3.38, 3.88, 7.65, 5.67, -18.3, 9.34, 6.83, -3.95, -32.8% and inactive: 10.7, 18.2, 18.1, 14.3 (2×), 10.8, 16.4 (2×), 19.8, 12.8, 69.5, 15.3, 19.3, 15.5, 11.2, 17.5, 10.9, 12.1, 14.1, 15.9, 15.4, 36.5, 12.2, 15.1, 15.2, 10.6, 11.4%; growth (A549/ATCC NSCLC; runs of 1998): active: -51.4, 6.99, 7.66, 2.22, 3.88, 2.7, -5.3, -54.3, -16.2, 4.92, 7.5, 2.46, 2.89, -26.3, 9.16, 0.0377, 7.99, 8.23, -10.4% and inactive: 17.5, 14.6, 14.7, 13, 13.3 (2×), 18.8%; growth (A549/ATCC NSCLC; runs of 1999): inactive: 17.5, 20.3, 14.3, 37, 15.9, 11.7% and active: -100 (2×), -55.6, -83.2, -56.5, -77, -13.5, 0.464, -73.7, -87.1, -60.1, -61.7%; growth (A549/ATCC NSCLC; runs of 2000): active: -82.6, -25.3, -46.8, -73%; growth (786-0 renal; runs of 1991): active: -11.8, -0.922, 4.11, 6.99, 2.47, -12.5, -32.1, 4.31, -75.5, -20.2, 5.34, -74.1, -23.2, -11.1, 8.4, 3.7, -28.8% and inactive: 17%, 11.4%; growth (786-0 renal; runs of 1992): active: 0.67, 2.97, 0.814, -7.21, -10.5, 5.8, 1.63, -29, 6.42, -49, -34.7, -31.1, -42.1, -10.2, 8.55, -28, 3.49, -42.9, -11.6, -56.2, -34.8, 0.372, -22.6, 3.57, -8.33, -70.6, -76.8, -28.4, -48.8, -21.8, -32.8, -56.9, 3.87, -12.1, 0.743, -33.2, -44.2, 8.88, 0.926, 7.42, -63.3, -49.1, -9.62, 8.19, 3.42, 6.79, -28.7, -12.9, -53.8, -41, 2.48, 1.3, -14, 7.62, 9.03, 1.79, -51.9, 0.398, -66.7, -12.8, -50.6, -52.8, -8.65, 6.29, 7.68, 4.82, 0.146, -13.4, 0.97, -4.46, -14.3, -69.7, 1.51, -17.2, -32.1, 9.32, -5.35, -13.9, -73.8 (2×), -40.9, 1.55, -72, -34.1, -24.8, -23.9, -23.4, -7.46, -1.3, -18.6, -46.2, -15.6, -36.6, -27.3, -16, -9.17% and inactive: 14.6, 72.3, 12.4, 17.7, 12.3, 19.5, 18.9, 101, 40.1, 11.2, 19.3, 11.5, 13.9, 11.8, 16.4, 29.2, 48.9, 11.9, 54.8, 13.6%; growth (786-0 renal; runs of 1993): inactive: 13.6, 25.5, 33.3, 21.7, 21.5, 35.7, 13.2, 16.4, 22.1, 16.5, 12.7, 13.3, 11.6, 13.1, 11.9, 24.8, 92.2, 16.3, 78.3, 12.5, 24, 16% and active: 0.736, -3.64, -40.7, -15.2, -28.4, -9.96, -22.8, 5.6, 4.43, -38.7, -72.2, -12.9, 5.83, -9.73, 0.994, -25.7, -3.28, -63.9, -21, 9.46, 9.34, -13.8, 0.44, -17.7%; growth (786-0 renal; runs of 1994): inactive: 12.3, 22.1, 12.2, 11.5, 16.3, 10, 14.9, 20.3, 33, 11.7, 11.4, 22, 16.4% and active: -69.3, -46.7, 4.45, -49.8, -18.9, -19, -20.9, -17.1, -52.9, 0.905, 2.3, -22.9, 3.63, 4.5, -78.7, -12.7, -47.6, 5.59, -12, -0.532, -34.7, 4.43%; growth (786-0 renal; runs of 1995): inactive: 24.9, 13.8, 13.3, 10.4 (2×), 13.4, 20, 17.4, 13.1, 28.1, 16.1, 24.5, 18.5 (2×), 15.3, 23, 12.5, 28.8, 46.5, 21, 18.7% and active: -24.3, -40.1, -17.4, 8.79, -17.3, -22.1, 5.71, -35.9, 8.04, 8.45, 8.38, 6.43, -5.32, -34.2, 9.68, -50.8, 6.24, 4.7%; growth (786-0 renal; runs of 1996): active: 9.56, -44.6, 6.08, 7.68, -7.04, 5.56, 4.09, 2.01, 9.6, 4.36, -14.4, -15, 3.4, -38.1, -25.7, 2.86, 9.61, 4.99, 5.87, -32.6, 2.88, 4.94, -13.7, 2.25, -7.64% and inactive: 12.7, 12, 15.6, 10.2, 11.6 (2×), 20.2 (2×), 16.8, 15.4 (3×), 11.7, 17.9, 19.9, 13.9, 20.5 (2×), 18, 25.3, 10.5, 18.7, 24.4, 15.5, 14.7, 12.1, 16.2, 23.9, 26.6, 15.2, 24.7, 19.2, 20.6%; growth (786-0 renal; runs of 1997): active: -14.8, 5.75, 1.92, 5.02, -8.09, 0.155, -17.8, 9.03, -30.7, 1.04, -15.2, 8.04, -34.2, 2.98, -31.7, -7.45, 4, -59.5, 0.689, 6.27, 8.65, -32.8, 5.34, 8.99, 7.86, -7.41, 0.64, -15.5, -56.6% and inactive: 20.1, 19.2, 21.2, 12.7, 17, 15.6, 21.8, 10.3, 32.4, 11.5, 83, 23.5, 12, 13.8%; growth (786-0 renal; runs of 1998): active: -12.6, 5.31, 2.66, -30.2, -18.4, -7.66, -22.3, -19.2, 1.97, 6.34, 3.45% and inactive: 11.2, 26.4, 27.1, 13.7, 22, 16.2, 18.5, 22.6, 19.9, 14.9, 39%; growth (786-0 renal; runs of 1999): active: -29.4, -12.9, 1.09, 3.04, 2.75, 3.27, 4.01, 2.15, 1.51, 2.87, 0.429, 1.92% and inactive: 24.5, 12.1, 17.7, 22.7%; growth (786-0 renal; runs of 2000): active: -67.3, 2.04, 3.19, 1.7%

— PubChem BioAssay (NCI)
